These results are taken from patent publication US20220389066A1, “POLYPEPTIDES” (Affibody AB, priority 2019, published 2022).

For experiment [1], the target named is T1, HMGB1(disulfide) (Rattus norvegicus, UniProt P63159).
T1 construct: purchased HMGBiotech Srl, Milano, Italy
T1 sequence (P63159 1-215): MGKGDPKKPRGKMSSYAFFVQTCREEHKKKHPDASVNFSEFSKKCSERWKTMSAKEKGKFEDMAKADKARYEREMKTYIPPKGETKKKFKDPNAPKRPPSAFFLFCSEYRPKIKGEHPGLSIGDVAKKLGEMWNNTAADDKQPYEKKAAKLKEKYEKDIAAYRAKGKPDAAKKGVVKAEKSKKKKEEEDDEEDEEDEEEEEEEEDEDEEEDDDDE
As to the kind of experiment: Attana A200 biosensor binding analysis, HMGB1(disulfide). To be noted: relevant kd (the most represented in %); non-reducing; captured on HSA; 1:1 or 1:2 model. As to the method: (§1) Binding analysis: The Attana A200® biosensor was used to characterize interactions between the dimeric polypeptides (SEQ ID NO:38-48) and HMGB1(red) under reducing conditions and/or HMGB1(disulfide) under non-reducing conditions. The monomeric ZA3812 (SEQ ID NO:35) was included for comparison. The experiment was performed as a capture assay, in which HSA was immobilized on Attana's sensor chip Low-NonSpecific-Binding (LNB). Immobilization was performed using amine coupling. The instrument has two sensor surfaces and HSA was immobilized on both surfaces. Around 110 Hz of HSA was stably immobilized on the surfaces.
(§2) In the kinetic experiment, HBS-EP+/−2 mM DTT was used as running buffer and the flow rate was 25 μl/min at 22° C. In each cycle, one polypeptide was tested against one concentration of HMGB1. […] The analyte HMGB1(reduced) was diluted in HBS-EP+2 mM DTT within a concentration range of 1.33 to 21.4 μg/ml, and the analyte HMGB1(disulfide) was diluted in HBS-EP buffer within a concentration range of 0.62 to 10 μg/ml. Both analytes were subsequently injected for 84 s over both channel A and B, where channel B was used as a blank surface for curve subtraction. Buffer injections were also made for surface subtractions. After dissociation, the surfaces were regenerated with a 30 s injection of 100 mM HCl followed by a 30 s injection of 20 mM NaOH. Data was collected by Attester Software and subsequently processed in the Evaluation Software. To calculate the kinetic parameters (ka and kd) and affinity constant (KD), the experimental data were fitted using a 1:1 or a 1:2 binding model.

Experiment [2] deals with T2, HMGB1(red) (Rattus norvegicus, UniProt P63159).
T2 construct: purchased HMGBiotech Srl, Milano, Italy
T2 sequence (P63159 2-215): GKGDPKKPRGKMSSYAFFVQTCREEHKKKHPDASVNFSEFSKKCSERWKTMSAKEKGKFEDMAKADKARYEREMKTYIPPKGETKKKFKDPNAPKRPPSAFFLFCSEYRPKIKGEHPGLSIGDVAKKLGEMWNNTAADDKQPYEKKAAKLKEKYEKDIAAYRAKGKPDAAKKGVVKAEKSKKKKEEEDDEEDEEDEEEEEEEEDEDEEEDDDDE
As to the kind of experiment: In vitro cell migration assay, mouse 3T3 fibroblasts in modified Boyden chambers. It counts as cell-based. To be noted: 0.2 nM HMGB1, polypeptide 0.1, 0.3, 1 nM, lowest detection limit 0.1 nM, read-out: IC50 (nM), inhibiting HMGB1 induced cell migration. As to the method:
In vitro cell migration assay: Mouse 3T3 fibroblast cells were used to assess the ability of His6-tagged Z variants to inhibit migration of cells in response to HMGB1 in modified Boyden Chambers (Neuroprobe Inc.). Mouse 3T3 fibroblasts were grown in Dulbecco's Modified Eagle Medium (DMEM, Gibco) with 10% fetal bovine serum (FBS, Gibco), 1% L-glutamine and antibiotics (Lonza). Prior to use, cells were centrifuged and the pellet was resuspended in DMEM (without FBS) without further washing. Polycarbonate filters (Neuroprobe Inc.; #PFA8) with 8 μm pores were coated with human fibronectin (Roche). Serum-free DMEM (negative control), DMEM containing 1 nM HMGB1(red) (positive control), and DMEM containing 1 nM HMGB1(red) plus Z variants ZH 01 (SEQ ID NO:1) and ZH 31 (SEQ ID NO:31) at a concentration of 10 or 100 ng/ml, were placed in the lower wells. A control polypeptide, Z04726 (SEQ ID NO:54), binding an irrelevant target, was used as negative control. boxA(red) (SEQ ID NO:51), a known competitor of HMGB1, was used at 1 nM concentration as positive control for inhibition of HMGB1 induced cell migration. Fibronectin-coated filters were placed so as to separate the lower and the upper wells, and 50000 3T3 cells were placed in the upper wells. […] The cells on the lower side of the filter were counted with a Leica DM LS2 microscope at 400× magnification. […]

Experiment [3] has as its target T3, HMGB1(red) (Rattus norvegicus, UniProt P63159).
T3 construct: purchased HMGBiotech Srl, Milano, Italy
T3 sequence (P63159 1-215): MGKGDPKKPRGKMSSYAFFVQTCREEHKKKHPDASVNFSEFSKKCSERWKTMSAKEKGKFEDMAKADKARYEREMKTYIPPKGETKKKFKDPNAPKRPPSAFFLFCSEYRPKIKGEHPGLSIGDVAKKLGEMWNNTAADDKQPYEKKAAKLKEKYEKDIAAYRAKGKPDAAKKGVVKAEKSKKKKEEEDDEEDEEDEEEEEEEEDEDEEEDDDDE
As to the kind of experiment: Attana A200 biosensor binding analysis, HMGB1(red). To be noted: relevant kd (the most represented in %); 2 mM DTT; captured on HSA; 1:1 or 1:2 model. The protocol:
as §1, §2

The target in experiment [4] is T1, HMGB1(disulfide). Kind of experiment: Biacore kinetic analysis, Z-ABD captured on HSA, HMGB1(disulfide). The settings on record: analyte HMGB1(disulfide); non-reducing; heterogeneous ligand parallel reactions model. It counts as binding. As to the method:
(§3) Biacore kinetic and specificity analysis: Kinetic constants (ka and kd) and affinities (KD) for HMGB1(red), HMGB1(disulfide), boxA(disulfide) and GST-boxA(red) were determined for the A-box binding Z-ABD polypeptides ZA3812 (SEQ ID NO:35) and ZA3914 (SEQ ID NO:36) (see Example 2), as well as for the HMGB1(red) interaction with the B-box binding polypeptide ZA3975, using a Biacore 2000 instrument (GE Healthcare).
(§4) The experiment was performed as a capture assay, in which human serum albumin (HSA, Novozymes, cat. no. 230-005) was immobilized on the carboxylated dextran layer of one CM5 chip surface (GE Healthcare, cat. no. BR100012) to immobilization levels of approximately 3000 RU. The immobilization was performed using amine coupling chemistry according to the manufacturer's protocol and using HBS-EP (GE Healthcare, cat. no. BR100188) as running buffer. In a first set of experiments, Z-ABD polypeptides were analyzed under non-reducing conditions. One flow cell surface was activated and deactivated for use as blank during ligand and analyte injections. In the kinetic experiment, HBS-EP was used as running buffer and the flow rate was 30 μl/min. The ligand, i.e. the Z-ABD polypeptide, was diluted in HBS-EP buffer to a concentration of 30 nM and injected during 2 min.
(§5) The analyte, i.e. HMGB1(disulfide) or boxA(disulfide), was diluted in HBS-EP buffer within a concentration range of 2.5 to 640 nM and injected during 6 min, followed by dissociation in running buffer for 12 min. After dissociation, the surfaces were regenerated with one injection of 10 mM HCl.
(§6) Kinetic constants were calculated from sensorgrams using the BiaEvaluation software 4.1 (GE Healthcare). The Langmuir 1:1 model was used for fitting of all data except for HMGB1(disulfide), where a model for heterogeneous ligand parallel reactions better represented the experimental data and bulk was set to zero. Double referencing was applied to all data prior to kinetic fit, i.e. responses obtained from a blank surface and from a blank cycle where buffer was injected instead of analyte were subtracted.
On the technique in general: Surface plasmon resonance follows binding to a sensor surface in real time, without labels.

In experiment [5] the target is T3, HMGB1(red). Kind of experiment: Biacore kinetic analysis, Z-ABD captured on HSA, HMGB1(red). It counts as binding. To be noted: analyte HMGB1(red); reducing conditions (DTT); 1:1 model. As to the method: as §3, §4
(§7) In a second set of experiments, ZA3812 and ZA3914 were analyzed under reducing conditions where 2 mM DTT was included in the sample and running buffer. Analyses were performed as described above, except that HMGB1(red) and GST-boxA(red) were used as targets.
In a third experiment, ZA3975 was analyzed for binding to HMGB1(red) under reduced conditions (1.5 mM DTT included in the sample and running buffer). The ligand ZA3975 was diluted in HBS-EP buffer to a concentration of 100 nM and injected during 4 min. The analyte, HMGB1(red), was diluted in HBS-EP buffer to a concentration within the range of 8.3 to 675 nM and injected during 4 min, followed by dissociation in running buffer for 20 min. After dissociation, the surfaces were regenerated with three injections of 10 mM HCl.
as §6

A further experiment addresses T4, GST-boxA(red) (Homo sapiens, UniProt P09429).
T4 construct: purchased HMGBiotech Srl, Milano, Italy
As to the kind of experiment: Biacore kinetic analysis, Z-ABD captured on HSA, GST-boxA(red). It counts as binding. The settings on record: analyte GST-boxA(red); 2 mM DTT; 1:1 model. As to the method: as §3, §4, §7, §6

For the next experiment, the target named is T5, boxA(disulfide) (Homo sapiens, UniProt P09429).
T5 construct: purchased HMGBiotech Srl, Milano, Italy
T5 sequence (P09429 1-89): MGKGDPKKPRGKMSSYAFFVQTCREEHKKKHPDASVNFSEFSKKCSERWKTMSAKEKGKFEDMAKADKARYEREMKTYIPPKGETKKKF
Kind of experiment: Biacore kinetic analysis, Z-ABD captured on HSA, boxA(disulfide). It counts as binding. The settings on record: analyte boxA(disulfide); non-reducing; 1:1 model. The protocol: as §3, §4, §5, §6

T4 sequence (P09429 with tags, fused parts or gaps): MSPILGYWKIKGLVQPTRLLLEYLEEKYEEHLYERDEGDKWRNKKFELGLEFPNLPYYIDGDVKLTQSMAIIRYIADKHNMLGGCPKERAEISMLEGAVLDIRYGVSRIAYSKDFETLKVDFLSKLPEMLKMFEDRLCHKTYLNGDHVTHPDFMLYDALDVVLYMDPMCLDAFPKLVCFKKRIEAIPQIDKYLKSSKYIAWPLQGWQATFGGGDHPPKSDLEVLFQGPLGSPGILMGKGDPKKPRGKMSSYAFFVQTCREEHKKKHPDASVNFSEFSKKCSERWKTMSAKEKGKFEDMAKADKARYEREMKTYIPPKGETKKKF

B1: ZZA4010: heterodimer ZH01/ZH31, format Z(boxA)-L1-Z(boxB)-ABD (protein)
chain: VDAKYAKEDWDAFWEIIWLPNLTDAQQRAFIYKLEDDPSQSSELLSEAKKLNDSQAPKGAPGGGGSGGGGSGGGGSTSVDAKYAKEAWLAEQEIWQLPNLTEAQFQAFILKLIDDPSQSSELLSEAKKLNDSQAPKASGSLAEAKEAANAELDSYGVSDFYKRLIDKAKTVEGVEALKDAILAALP
modifications: Engineered HMGB1 binding polypeptide
notes: heterodimer ZH01/ZH31, format Z(boxA)-L1-Z(boxB)-ABD
In the case of B1, the “kd HMGB1 (disulfide)” value with HMGB1(disulfide) [1] turned out to be 0.001 s⁻¹. The IC50 with HMGB1(red) [2] was in the range of 0.1 to 0.3 nM. For the same molecule, in the experiment with HMGB1(red) [3], the “kd HMGB1 (red)” value turned out to be 0.00055 s⁻¹.

B2: ZA3914: A-box binding Z-ABD polypeptide, ZH 28-ASGS-PP013 (protein)
chain: AEAKYAKEAWQAMEEILWLPNLTNTQQLAFIYKLEDDPSQSSELLSEAKKLNDSQAPKASGSLAEAKEAANAELDSYGVSDFYKRLIDKAKTVEGVEALKDAILAALP
modifications: Engineered HMGB1 binding polypeptide
For the molecule B2, in the experiment with HMGB1(disulfide) [4], the “ka1” value was 180000 M⁻¹ s⁻¹, the “ka2” value worked out at 14000 M⁻¹ s⁻¹, the “kd1” value came out at 0.025 s⁻¹ and the “kd2” value was determined as 9.5e-05 s⁻¹. Moreover, in the experiment with HMGB1(red) [5], the “ka1” value was 180000 M⁻¹ s⁻¹ and the “kd1” value was 0.0011 s⁻¹. In addition, in the experiment with GST-boxA(red), the “ka1” value is 120000 M⁻¹ s⁻¹ and the “kd1” value was found to be 0.0001 s⁻¹. Moreover, in the experiment with boxA(disulfide), the “ka1” value came out at 170000 M⁻¹ s⁻¹ and the “kd1” value was 0.00015 s⁻¹.

B3: ZA3812: A-box binding Z-ABD polypeptide, ZH 27-ASGS-PP013 (protein)
chain: AEAKYAKEDWDAFWEIIWLPNLTDAQQRAFIYKLEDDPSQSSELLSEAKKLNDSQAPKASGSLAEAKEAANAELDSYGVSDFYKRLIDKAKTVEGVEALKDAILAALP
modifications: Engineered HMGB1 binding polypeptide
For B3, in the experiment with HMGB1(disulfide) [4], the “ka1” value came to 160000 M⁻¹ s⁻¹, the “ka2” value worked out at 13000 M⁻¹ s⁻¹, the “kd1” value is 0.018 s⁻¹ and the “kd2” value amounted to 3.5e-05 s⁻¹. Besides, in the experiment with HMGB1(red) [5], the “ka1” value worked out at 500000 M⁻¹ s⁻¹ and the “kd1” value stood at 0.0004 s⁻¹. In the experiment with HMGB1(disulfide) [1], the “kd HMGB1 (disulfide)” value came out at 0.00048 s⁻¹. Further, in the experiment with GST-boxA(red), the “ka1” value was 72000 M⁻¹ s⁻¹ and the “kd1” value turned out to be 7.6e-05 s⁻¹. In the experiment with boxA(disulfide), the “ka1” value was determined as 150000 M⁻¹ s⁻¹ and the “kd1” value was 21000 s⁻¹. In the experiment with HMGB1(red) [3], the “kd HMGB1 (red)” value turned out to be 0.013 s⁻¹.

B4: ZZA4053: homodimer of ZH27, format Z(boxA)-L1-Z(boxA)-ABD (protein)
chain: AEAKYAKEDWDAFWEIIWLPNLTDAQQRAFIYKLEDDPSQSSELLSEAKKLNDSQAPKGAPGGGGSGGGGSGGGGSTSAEAKYAKEDWDAFWEIIWLPNLTDAQQRAFIYKLEDDPSQSSELLSEAKKLNDSQAPKASGSLAEAKEAANAELDSYGVSDFYKRLIDKAKTVEGVEALKDAILAALP
modifications: Engineered HMGB1 binding polypeptide
notes: homodimer of ZH27, format Z(boxA)-L1-Z(boxA)-ABD
On to B4, for which, in the experiment with HMGB1(disulfide) [1], the “kd HMGB1 (disulfide)” value turned out to be 0.00062 s⁻¹. Further, in the experiment with HMGB1(red) [2], the IC50 lay in the range of 0.3 to 1 nM. In the experiment with HMGB1(red) [3], the “kd HMGB1 (red)” value is 0.013 s⁻¹.
